# Measured values: the supplement of paper PMC6135742
# Where a name gives a salt, the structure may show the parent alone. ± gives the standard deviation of the averaged measurements. The full ranking holds about 2,600 compounds; the median of “MBP+ mature oligodendrocyte number relative to DMSO vehicle control” is about -0.34, and the highest 2% start at about 13. This is one part of the list.
# Tested on: jimpy (Plp1 jimpy) mouse iPSC-derived oligodendrocyte progenitor cells
# Experiment: MBP+ mature oligodendrocyte number relative to DMSO vehicle control (SDs above negative control mean); higher = more surviving jimpy oligodendrocytes (rescue)
# Details: 10 µM; 3 days
# 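Also: 10 µM single dose with 3-day oligodendrocyte differentiation.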
row,Structure (SMILES),MBP+ mature oligodendrocyte number
1,COC(=O)C(C)(N)Cc1ccc(O)cc1 (racemic) [alpha-Methyl-DL-tyrosine methyl ester hydrochloride],-1.15
2,"Nc1ncnc2c1ncn2[C@@H]1O[C@@H]2COP(=O)(O)O[C@H]2[C@H]1O [Adenosine 3',5'-cyclic monophosphate]",0.785
3,C[N+](C)(C)CC(O)CC(=O)[O-] (racemic) [DL-Carnitine HCl],5.65
4,CC(C)C(=O)c1c(C(C)C)nn2ccccc12 [Ibudilast],-0.858
5,C[N+](C)(C)C[C@H](O)CC(=O)[O-] [L-carnitine],3.02
6,CC[C@]1(O)C[C@@H]2CN(CCc3c([nH]c4ccccc34)[C@@](C(=O)OC)(c3cc4c(cc3OC)N(C)[C@H]3[C@@](O)(C(=O)OC)[C@H](OC(C)=O)[C@]5(CC)C=CCN6CC[C@]43[C@@H]65)C2)C1 [Vinblastine],-6.35
7,CC[C@]1(O)C[C@@H]2CN(CCc3c([nH]c4ccccc34)[C@@](C(=O)OC)(c3cc4c(cc3OC)N(C)[C@H]3[C@@](O)(C(=O)OC)[C@H](OC(C)=O)[C@]5(CC)C=CCN6CC[C@]43[C@@H]65)C2)C1 [Vinblastine sulfate salt],< -3.85
8,CCN(CCCc1ccccc1)CCCc1ccccc1 [Alverine Citrate],12.2
9,Nc1nccc2c1ncn2[C@@H]1O[C@H](CO)[C@@H](O)[C@H]1O [3-deazaadenosine],-1.07
10,N[C@@H](Cc1ccc(F)cc1)C(=O)O [p-Fluoro-L-phenylalanine],0.816
11,O=C(Nc1ccc2[nH]ncc2c1)C1CCC1 [Rhodblock 6],-1.53
12,Cn1cnc(N)c2ncnc1-2 [3-Methyladenine],2.88
13,CCCCC#Cc1nc(NC)c2ncn([C@@H]3O[C@H](CO)[C@@H](O)[C@H]3O)c2n1,-1.1
14,CCOc1ncc(S(=O)(=O)N2CCN(CC)CC2)cc1-c1nc(=O)c2nn(CCOC)c(CC)c2[nH]1 [Gisadenafil besylate salt],0.47
15,CC(C)=CCC/C(C)=C/COc1ccc2ccc(=O)oc2c1 [Auraptene],-0.783
16,COc1cc(CC(=O)O)ccc1O [4-Hydroxy-3-methoxyphenylacetic acid],0.45
17,O=S(=O)(O)CCSSCCS(=O)(=O)O [Dimesna],1.85
18,CCCC(C(=O)OCCN(CC)CC)(c1ccccc1)c1ccccc1 [SKF-525A hydrochloride],-3.42
19,CO[C@H]1C(=O)[C@]2(C)[C@@H](OC)C[C@H]3OC[C@@]3(OC(C)=O)[C@H]2[C@H](OC(=O)c2ccccc2)[C@]2(O)C[C@H](OC(=O)[C@H](O)[C@@H](NC(=O)OC(C)(C)C)c3ccccc3)C(C)=C1C2(C)C [Cabazitaxel],-3.71
20,Clc1ccc(COC(Cn2ccnc2)c2ccc(Cl)cc2Cl)cc1 (stereo not given) [Econazole nitrate],5.37
21,Clc1ccccc1C(c1ccccc1)(c1ccccc1)n1ccnc1 [Clotrimazole],15.7 ± 1.2
22,NC(=O)NO [Hydroxyurea],0.603 ± 0.14
23,CCN1CCCC1CNC(=O)c1cc(S(N)(=O)=O)ccc1OC (racemic) [(±)-Sulpiride],1.07
24,NC[C@H]1CC[C@H](C(=O)O)CC1 [Tranexamic Acid],2.68
25,C=CCc1ccccc1OCC(O)CNC(C)C (stereo not given) [Alprenolol hydrochloride],-0.119

row,Structure (SMILES),MBP+ mature oligodendrocyte number
1,CC(=O)OC(C)C[N+](C)(C)C (stereo not drawn) [Acetyl-beta-methylcholine chloride],0.47
2,CCCCOc1ccc(CC(=O)NO)cc1 [Bufexamac],2.25
3,Cc1cc(C)cc(NC(=O)Cc2ccc(OC(C)(C)C(=O)O)cc2)c1 [Efaproxiral Sodium],2.86
4,CCCCC[C@H](CC(=O)NO)C(=O)N[C@H](C(=O)N1CCC[C@H]1CO)C(C)C [Actinonin],-0.708
5,Cc1ccc(O)c([C@H](CCN(C(C)C)C(C)C)c2ccccc2)c1 [Tolterodine tartrate],-2.91
6,Cc1nc(N=Nc2ccc(S(=O)(=O)O)cc2S(=O)(=O)O)c(COP(=O)(O)O)c(C=O)c1O,-0.247
7,CCCCCCCCCCCCCCCCO [1-Hexadecanol],0.491
8,"CN(C)C(=O)N=NC(=O)N(C)C [N,N,N',N'-Tetramethylazodicarboxamide]",-0.596
9,CCN1/C(=C/C(C)=O)Sc2ccc(OC)cc21,-3.37 ± 1.6
10,Cc1c(O)cccc1C(=O)N[C@@H](CSc1ccccc1)[C@H](O)CN1C[C@H]2CCCC[C@H]2C[C@H]1C(=O)NC(C)(C)C [Nelfinavir mesylate hydrate],-2.69
11,Nc1ccn([C@@H]2O[C@H](CO)[C@@H](O)[C@H]2O)c(=O)n1 [Cytidine],0.883
12,CN(C)CCC(c1ccccc1)c1ccccn1 (stereo not given) [Pheniramine Maleate],1.76
13,CN(C)CCC(c1ccccc1)c1ccccn1 (stereo not given) [Pheniramine maleate],0.61
14,Cc1cccc(Nc2nc(-c3ccncc3)cs2)c1,-6.61
15,CCOc1ccc(Cc2cc([C@@H]3O[C@H](CO)[C@@H](O)[C@H](O)[C@H]3O)ccc2Cl)cc1 [Dapagliflozin],1.78
16,CN(C)CCN1C(=O)c2cccc3cc(N)cc(c23)C1=O [Amonafide],< -6.7
17,O[C@@H]1CO[C@H]2[C@@H]1OC[C@@H]2O [Isosorbide],2.1
18,COc1ccc(/C=C2\COc3ccc(C)cc3C2=O)cc1O,-3.75
19,"COC1=C(OC)C(=O)c2ccccc2C1=O [2,3-Dimethoxy-1,4-naphthoquinone]",-4.41
20,CCCNS(=O)(=O)Nc1ncnc(OCCOc2ncc(Br)cn2)c1-c1ccc(Br)cc1 [Macitentan],2.07
21,CC(CCc1ccc(O)cc1)NCCc1ccc(O)c(O)c1 (stereo not given) [Dobutamine hydrochloride],-1.33
22,N[C@@H](CCC(=O)N[C@@H](CSN=O)C(=O)NCC(=O)O)C(=O)O [S-Nitrosoglutathione],-0.951
23,CCCCNc1ncc(-c2ccc(CN3CCOCC3)cn2)c(NC2CCC(O)CC2)n1 (stereo not given),-4.15
24,CCOc1nc2cccc(C(=O)OC(C)OC(=O)OC3CCCCC3)c2n1Cc1ccc(-c2ccccc2-c2nn[nH]n2)cc1 (stereo not given) [Candesartan Cilexetil],1.51
25,CCOc1nc2cccc(C(=O)OC(C)OC(=O)OC3CCCCC3)c2n1Cc1ccc(-c2ccccc2-c2nn[nH]n2)cc1 (stereo not given) [Candesartan cilexetil],-1.35
